# Reference: the supplement of paper PMC12217912
# This is one part of the list. The full chains were built here from the parent and the listed change. Values near 0.05 are background.
# B1: TEV protease; numbered along this chain (parent)
# chain: MGESLFKGPRDYNPISSSICHLTNESDGHTTSLYGIGFGPFIITNKHLFRRNNGTLVVQSLHGVFKVKDTTTLQQHLVDGRDMIIIRMPKDFPPFPQKLKFREPQREERICLVTTNFQTKSMSSMVSDTSCTFPSGDGIFWKHWIQTKDGQCGSPLVSTRDGFIVGIHSASNFTNTNNYFTSVPKNFMELLTNQEAQQWVSGWRLNADSVLWGGHKVFMVKPEEPFQPVKEATQL
# Variants of: B1
# Assay: raw area under fraction-flipped curve 0-4 h after induction (AUC4h, not background-subtracted), DNA-recorder readout of cleavage of the substrate (dimensionless); higher = more cleavage of the substrate by the protease variant
# Settings: temperature: 34 °C; time window: 0-4 h after rhamnose induction
# 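Also: Bxb1 expression induced with 0.2% (w/v) L-rhamnose at OD600 near 0.5, cultures sampled hourly, flipped fraction per protease–substrate barcode pair counted by paired-end Illumina sequencing.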
Variant,area with substrate ENGYFQS,area with substrate ENKYFQS,area with substrate ENTYFQS,area with substrate ENVYFQS,area with substrate ENIYFQS,area with substrate ENSYFQS,area with substrate ENEYFQS,area with substrate ENMYFQS,area with substrate ENNYFQS,area with substrate ENRYFQS
S169Y,0.0577,0.0534,0.0595,0.0424,–,–,–,–,–,–
S169K,–,–,–,0.0277,0.0438,0.0638,–,–,–,–
G138P,0.0571,–,–,–,–,–,0.056,0.0549,0.0484,0.0717
G138T,0.0665,0.0531,–,–,0.0883,–,–,–,–,–
I86C,–,0.0613,0.0555,–,0.0807,0.0538,0.0858,0.0041,0.0383,0.0664
S135L,–,–,–,–,0.0422,–,0.0783,–,–,–
Q227A,–,0.0723,–,–,0.101,–,–,–,–,–
L235Y,–,–,–,–,0.102,0.0568,0.0691,–,0.0745,–
G213T,0.0561,–,0.0607,–,0.0608,0.061,0.0484,–,0.063,0.0537
G213C,0.0498,–,–,0.045,–,0.0511,–,0.0602,–,0.0574
L61T,–,0.0699,0.0643,–,–,0.055,–,–,–,0.1
L61F,–,–,–,0.0712,–,–,–,–,–,–
G214W,–,0.0747,–,–,0.0936,–,–,–,–,0.0645
F92K,–,–,0.0613,–,–,–,0.0651,–,0.0504,0.0952
F92G,–,–,–,–,–,–,0.0713,–,–,–
D82M,–,–,–,0.0558,0.0566,–,0.0698,0.0514,0.0693,–
P93K,–,–,0.0507,–,–,–,–,–,0.0398,–
P93W,–,–,–,–,–,0.0608,–,–,–,–
S182V,–,–,–,0.08,–,0.0691,–,–,–,–
N186H,–,–,0.054,–,–,0.054,0.0705,–,–,–
G8L,0.0588,–,0.0525,0.0785,–,–,–,–,–,0.0669
S171K,0.0634,0.0638,–,–,–,0.0917,0.0629,0.0612,0.02,0.0578
R50N,0.0522,–,0.0894,–,–,0.0437,–,–,–,–
L205Y,0.0302,–,0.0619,–,0.0719,0.0658,0.0595,0.0585,0.0716,0.0468
S4A,0.0517,–,–,0.0411,0.0989,–,–,–,0.0576,–
T181C,0.0599,–,–,0.0865,–,–,–,–,–,0.0652
S209W,0.0647,–,–,–,–,–,0.0343,–,0.0729,–
S209Y,–,–,0.0654,–,–,–,0.0556,–,–,0.0284
V200D,–,–,–,0.0568,0.0673,–,0.051,–,–,–

# Same assay, conditions: temperature: 34 °C; time window: 0-4 h after rhamnose induction
Variant,area with substrate ENWYFQS,area with substrate ENQYFQS,area with substrate ENHYFQS,area with substrate ENFYFQS,area with substrate ENPYFQS,area with substrate ENYYFQS
G138P,0.0566,–,–,–,–,–
I86C,–,0.0648,–,–,–,–
R81P,0.0383,–,–,–,–,–
L235Y,0.0566,–,0.041,–,–,–
G213T,–,0.06,0.0513,0.0625,–,–
G213C,0.0732,–,–,0.0487,0.0507,0.0596
L61T,–,0.0509,–,0.0701,–,–
L61F,0.0588,–,–,–,–,–
F92K,0.0252,–,–,0.0525,–,–
F92G,–,0.0588,–,–,–,–
D82M,0.0397,0.0559,0.0563,0.0575,–,–
P93K,–,–,–,–,0.0479,–
S182V,–,0.0549,0.0573,–,–,–
W212N,–,0.0383,–,–,–,–
G8L,–,0.0638,–,0.0552,–,–
S171K,–,–,0.0601,0.0433,–,–
R50N,–,0.0604,–,–,–,–
L205Y,–,0.0618,0.0546,0.0474,0.0379,–
S4A,–,0.0345,–,–,0.084,0.0705
S209W,–,–,0.0401,–,0.0622,0.0539
S209Y,–,0.0388,0.037,–,–,0.065
